Laboratory results: paper PMC4336329 (PLoS ONE, 2015)
The whole screen tested about 310,000 compounds, of which about 14,000 (4.5%) showed an effect of 50% or more. Effects have a minus sign here. The list shows a part of the results.

Target: human ether-à-go-go-related gene (hERG) potassium channel (human, UniProt Q12809)
Experiment: primary screen, population patch clamp on CHO cells stably expressing hERG
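Also: peak tail current of the secondary pulse compared with the same well before compound.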

Chain of human ether-à-go-go-related gene (hERG) potassium channel (Q12809 whole entry, looked up): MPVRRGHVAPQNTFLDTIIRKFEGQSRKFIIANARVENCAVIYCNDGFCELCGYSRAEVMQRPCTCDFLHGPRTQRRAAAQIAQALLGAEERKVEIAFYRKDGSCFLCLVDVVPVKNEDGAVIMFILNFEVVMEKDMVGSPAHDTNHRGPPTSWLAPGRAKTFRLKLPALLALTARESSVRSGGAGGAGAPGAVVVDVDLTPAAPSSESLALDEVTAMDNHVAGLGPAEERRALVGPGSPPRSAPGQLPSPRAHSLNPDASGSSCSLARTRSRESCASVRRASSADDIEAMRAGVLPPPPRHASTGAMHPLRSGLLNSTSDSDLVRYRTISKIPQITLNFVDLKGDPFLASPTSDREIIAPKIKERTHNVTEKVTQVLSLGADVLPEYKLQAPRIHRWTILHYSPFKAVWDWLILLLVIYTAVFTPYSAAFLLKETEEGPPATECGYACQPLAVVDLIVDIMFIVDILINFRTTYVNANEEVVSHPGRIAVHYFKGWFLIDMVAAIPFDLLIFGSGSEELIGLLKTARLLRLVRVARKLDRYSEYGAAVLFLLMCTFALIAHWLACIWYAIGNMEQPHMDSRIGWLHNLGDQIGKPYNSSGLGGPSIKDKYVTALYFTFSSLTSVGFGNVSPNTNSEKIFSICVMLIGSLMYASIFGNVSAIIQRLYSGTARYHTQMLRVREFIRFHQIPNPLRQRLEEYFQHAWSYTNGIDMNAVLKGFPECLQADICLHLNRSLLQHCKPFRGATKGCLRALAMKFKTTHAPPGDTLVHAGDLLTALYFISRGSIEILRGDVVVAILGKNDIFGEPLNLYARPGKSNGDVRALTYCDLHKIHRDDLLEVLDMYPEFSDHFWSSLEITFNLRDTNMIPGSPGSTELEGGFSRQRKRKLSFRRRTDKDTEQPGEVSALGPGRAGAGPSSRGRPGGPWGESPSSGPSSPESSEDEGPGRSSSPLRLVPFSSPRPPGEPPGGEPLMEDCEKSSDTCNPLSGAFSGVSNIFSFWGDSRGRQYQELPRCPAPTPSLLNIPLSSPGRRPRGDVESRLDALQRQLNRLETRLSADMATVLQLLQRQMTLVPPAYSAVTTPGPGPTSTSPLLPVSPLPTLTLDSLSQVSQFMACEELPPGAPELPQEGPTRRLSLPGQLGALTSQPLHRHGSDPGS

SMILES | hERG current change (%, negative = inhibition) at 10uM [%]
CCCn1c(N/N=C(C)\C=C\c2ccccc2)nc2c1c(=O)[nH]c(=O)n2C | -8.82
CCCNC(=O)Cn1nc(C(F)(F)F)c2c1CCC2 | 20
COc1ccc(S(=O)(=O)N(CC(=O)NCc2ccco2)c2ccccc2OC)cc1 | -25.5
O=C(COc1cccc(F)c1)NNC(=O)Cc1ccc(S(=O)(=O)N2CCOCC2)s1 | -11.9
CN1C[C@@H]2C(c3ccccc3)C3(c4ccccc4)CC2(C3)[C@H]1c1ccccc1 (stereo partly shown) | -25.7
CCN(CC)S(=O)(=O)c1ccc(N2CCOCC2)c(NC(=O)c2cc(C)cc(C)c2)c1 | -19.7
Cc1ccc(C(=O)NNC(=O)CSc2nnc3c(n2)[nH]c2ccc(F)cc23)cc1 | 9.15
Nn1c(SCC(=O)Nc2ccc3c(c2)OCO3)nnc1-c1ccc(Cl)cc1 | 0.302
Cc1cccc(NC(=O)C(C)OC(=O)c2ccccc2NS(=O)(=O)c2cc(C)c(C)c([N+](=O)[O-])c2)c1 (stereo not shown) | 1.74
COc1ccc(CCNC(=O)C2CCN(S(=O)(=O)c3cccs3)CC2)cc1OC | -5.23
O=C(CCC1CCCCC1)NCCN1C2=NC[C@@H](Cc3ccccc3)N2C[C@H]1Cc1ccc(O)cc1 | -69.3
COc1ccccc1CNC(=O)CNCC1CCCO1.O=C(O)C(=O)O (stereo not shown) | -33.3
Cc1nc2c(c3c1[nH]c1ccccc13)C(O)CC(C)(C)C2 (stereo not shown) | -7.51
COc1ccc(C(O)P(=O)(Oc2ccccc2)Oc2ccccc2)cc1 (stereo not shown) | 5.78
CC(C)CNS(=O)(=O)c1ccc(OCC(=O)Nc2ccc(F)cc2F)cc1 | 9.76
Cc1ccc(-n2c(O)c(C=Nc3ccccc3-c3n[nH]c(=S)[nH]c3=O)c3ccccc3c2=O)c(C)c1 | 10.6
CN(CCOc1ccc(Cl)cc1)CC(O)c1ccccc1.O=C(O)C(=O)O (stereo not shown) | -60.4
CCn1c(=O)n(CC)c2cc(N3CCCC3)c(NC(=O)c3ccccc3C)cc21 | -1.31
COc1ccc(C(C)=O)cc1COC(=O)c1ccc(OCc2c(C)noc2C)cc1 | 3.84
O=S1(=O)c2ccccc2N=NN1Cc1ccc(Cl)c(Cl)c1 | 6.18
COc1cccc(C2=CC(c3ccccc3)n3nnnc3N2)c1 (stereo not shown) | 4.23
COc1ccc(-c2nc3ccccc3c(=O)n2CCOc2c(C)cccc2C)cc1 | 15
